From PubChem BioAssay AID588855 (National Center for Advancing Translational Sciences (NCATS), 2011)
Among all 410,000 compounds or so, about 5,000 (1.2%) were called active. Inconclusive results, whose numbers are uncertain, are shown with a selection of clear calls. Calls follow the shape of the dose curve; as a rule, active = well fitted inhibition curve with a large enough effect; inconclusive = small, poorly fitted or top-dose-only effect; inactive = no such curve, though single readings can be large or run the other way. Where the call is inconclusive, the potency comes from a doubtful curve fit. More than one record can exist for a structure, and the calls need not agree.
Potency is read from the fitted curve at half-maximal effect; tags tell the direction and shape of the fitted curve.

Assay: qHTS for Inhibitors of TGF-b; also: nearly all actives have a fitted effect of over 65% in size
Conditions: HepG2 CAGA-GFP TGF-b/SMAD3 reporter, GFP fluorescence, 18 h, TGF-beta stimulated, 500 pg/mL final; series mostly up to 46.1 µM
In short: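 Smad-responsive CAGA-GFP expression was quantified in HEPG2 cells exposed to compounds and 500 pg/mL final TGF-beta for 18 h at 37 degrees C; unstimulated wells defined full inhibition.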
With `O=C(N/N=C\C=C\c1ccco1)C1COc2ccccc2O1` (stereo not given) the Potency was inconclusive: 35.5 µM [inhibitor, single point].
For `Cc1ccc(C(=O)Nc2cccc(NC(=O)c3ccc(C)c([N+](=O)[O-])c3)n2)cc1[N+](=O)[O-]`, the Potency was inconclusive: 7.94 µM [inhibitor, partial curve, poor fit].
With `CN(C(=O)COC(=O)c1cccc(Cl)c1)C1CCS(=O)(=O)C1` (stereo not given) the Potency was “inactive”.
For `Nc1ccc2nc(-c3ccccn3)[nH]c2c1`, the Potency was inconclusive: 10 µM [inhibitor, partial curve, poor fit].
In the case of `C=CCN1C=C2C(=O)C(C)(OC(=O)c3cnc4ccccc4n3)C(=O)C=C2C=C1/C=C/COC` (stereo not given), the Potency is reported as inconclusive: 17.8 µM [inhibitor, partial curve, poor fit].
With `COc1ccc(C)cc1Nc1n[n+](-c2ccccc2)c(-c2ccc(OC)c(OC)c2OC)s1` the Potency was inconclusive: 25.1 µM [inhibitor, single point].
In the case of `CCOC(=O)c1sc(N/N=C/c2cc(Br)c(O)c(OC)c2)nc1C`, the Potency is reported as inconclusive: 35.5 µM [inhibitor, single point].
With `N#Cc1c(Nc2ccccc2)s[nH]c1=O` the Potency was inconclusive: 20 µM [inhibitor, single point].
With `CC1C(c2ccccc2)=NNc2nc3c(c(=O)n(C)c(=O)n3C)n21` (stereo not given) the Potency was “inactive”.
In the case of `COc1ccc(C(NC(=O)c2ccc(F)cc2)c2ccccc2)cc1` (stereo not given), the Potency is reported as inconclusive: 6.31 µM [inhibitor, single point].
In the case of `O=C(NCCNC1CCC(c2ccccc2)CC1)c1ccc(F)cc1` (stereo not given), the Potency is reported as inconclusive: 35.5 µM [inhibitor, single point].
In the case of `O=C(NC1CC(=O)N(c2ccc3c(c2)OCCO3)C1)N1CCC(O)CC1` (stereo not given), the Potency is reported as inconclusive: 2.82 µM [inhibitor, full curve].
For `CCOC(=O)C1CCN(C/C=C/c2ccccc2[N+](=O)[O-])CC1`, the Potency was “inactive”.
For `CN(C)CC(=O)c1ccc(-c2ccccc2)cc1`, the Potency was “inactive”.
With `O=C(NCc1ccccc1)c1ccc(Cn2cc(C(F)(F)F)ccc2=O)cc1` the Potency was inconclusive: 6.31 µM [inhibitor, single point].
For `CC(C)(C)NC(=O)C(c1ccncc1)N(C(=O)Cn1nnc(-c2ccc(F)cc2)n1)c1ccc(F)cc1` (stereo not given), the Potency was inconclusive: 5.62 µM [inhibitor, single point].
For `O=C(c1ccco1)N1CCCC(c2nc(-c3ccc(S(=O)(=O)NCc4ccccc4)cc3)no2)C1` (stereo not given), the Potency was inconclusive: 10 µM [inhibitor, partial curve].
For `COc1cccc(OC)c1C(=O)Nc1c(C(=O)N2CCN(C)CC2)oc2ccccc12`, the Potency was “inactive”.
With `CCCOc1ccc(CCc2n[nH]c(=S)n2Cc2ccccc2)cc1` the Potency was inconclusive: 35.5 µM [inhibitor, single point].
For `Cc1ccc(NC(=O)c2ccc(-c3cc(Cl)ccc3Cl)o2)c(C)c1`, the Potency was “inactive”.
With `Cc1ccc(-c2cc(C(F)(F)F)n3ncc(-c4ccc(Cl)cc4)c3n2)cc1` the Potency was “inactive”.
With `CCOC(=O)C1CCN(C(=O)c2ccc3c(c2)N=C(CC)c2cc(C)ccc2S3)CC1` the Potency was active: 10 µM.
For `O=C(Cc1ccc(Br)c2ccccc12)N/N=C/c1ccccn1`, the Potency was inconclusive: 20 µM [inhibitor, partial curve, poor fit].
In the case of `COC(=O)c1sccc1NC(=O)Nc1ccc(Cl)c(Cl)c1`, the Potency is reported as inconclusive: 20 µM [inhibitor, single point].
For `CCCCn1c(=O)nc2n(-c3ccc(F)cc3)c3ccccc3cc-2c1=O`, the Potency was inconclusive: 14.1 µM [inhibitor, partial curve].
For `O=C(NCc1ccco1)C1CCCN1S(=O)(=O)c1ccc2ccccc2c1` (stereo not given), the Potency was inconclusive: 0.447 µM [inhibitor, full curve].
In the case of `CC(Sc1nc2c([nH]c3ccccc32)c(=O)n1-c1ccccc1)c1ccccc1` (stereo not given), the Potency is reported as inconclusive: 20 µM [inhibitor, single point].
With `CCOC(=O)c1cc2cc(-c3c(C(=O)OCC)oc4cc(O)cc(O)c4c3=O)ccc2o1` the Potency was inconclusive: 35.5 µM [inhibitor, single point].
In the case of `CC(Oc1ccccc1)C(=O)NNC(=O)c1ccccn1` (stereo not given), the Potency is reported as inconclusive: 25.1 µM [inhibitor, single point].
In the case of `CC(C)c1ccc(CNC(=O)CSCC(=O)Nc2ccc3ccccc3c2)cc1`, the Potency is reported as inconclusive: 31.6 µM [inhibitor, single point].
With `COc1cc2c(cc1OC)CN(c1nc(CN3CCOCC3)nc3sc4c(c13)CCC(C)C4)CC2` (stereo not given) the Potency was inconclusive: 35.5 µM [inhibitor, single point].
With `O=C(c1cccc(Cl)c1)N1CCC(c2nc3ccccc3o2)CC1` the Potency was inconclusive: 6.31 µM [inhibitor, single point].
For `CC1CCN(C(=O)C(C)Sc2nc(-c3ccccc3)cc(C(F)(F)F)n2)CC1` (stereo not given), the Potency was active: 15.8 µM.
With `CCOC(=O)c1ccc(-c2ccc(/C=N/NC(=O)CN(c3cccc(C)c3)S(C)(=O)=O)o2)cc1` the Potency was “inactive”.
For `O=C(CN1C(=O)c2ccccc2C1=O)N1CCN(C2c3ccccc3-c3ccccc32)CC1`, the Potency was inconclusive: 11.2 µM [inhibitor, partial curve, poor fit].
With `O=C(NC1CC1)C1=C[C@H](c2coc3ccccc3c2=O)C[C@H](OCc2ccc(CO)cc2)O1` the Potency was inconclusive: 3.98 µM [inhibitor, partial curve, poor fit].
For `COc1ccccc1NC(=O)c1ccccc1C(=O)O`, the Potency was inconclusive: 35.5 µM [inhibitor, single point].
With `COc1ccccc1CNC(=O)C1CCCN1S(=O)(=O)c1cccc2cccnc12` (stereo not given) the Potency was inconclusive: 35.5 µM [inhibitor, partial curve, poor fit].
For `O=C(Nc1ccccc1)Nc1ccc(Cl)nc1Cl`, the Potency was inconclusive: 10 µM [inhibitor, partial curve].
For `O=C(Nc1ccc2c(c1)OCO2)N1CCN(c2cccc(C(F)(F)F)c2)CC1`, the Potency was inconclusive: 25.1 µM [inhibitor, single point].
In the case of `O=C1N=C(N2CCOCC2)S/C1=C\c1ccccc1OS(=O)(=O)c1ccccc1`, the Potency is reported as “inactive”.
For `CN(c1cccc(NC(=O)Nc2ccc(Cl)cc2)c1)S(C)(=O)=O`, the Potency was inconclusive: 3.55 µM [inhibitor, partial curve, poor fit].
In the case of `CCOc1ccc(-c2nc(C#N)c(N3CCCCCC3)o2)cc1`, the Potency is reported as inconclusive: 5.62 µM [inhibitor, partial curve, poor fit].
In the case of `Cc1ccc(-n2nc3c(=O)n(C(C)C(=O)NCc4ccc5c(c4)OCO5)nc(C)c3c2C)cc1` (stereo not given), the Potency is reported as inconclusive: 10 µM [inhibitor, partial curve].
With `NC(=O)CC(NC(=O)Cc1ccc(Cl)cc1)c1ccc(N2CCC(Cc3ccccc3)CC2)c([N+](=O)[O-])c1` (stereo not given) the Potency was inconclusive: 20 µM [inhibitor, single point].
For `CCOc1ccc2[nH]c(=O)c(CN(Cc3nnnn3CCc3ccccc3)CC3CCCO3)cc2c1` (stereo not given), the Potency was inconclusive: 0.794 µM [inhibitor, full curve].
In the case of `COc1cc(C(=O)NC(=S)Nc2ccc(Cl)cn2)cc(OC)c1OC`, the Potency is reported as inconclusive: 3.16 µM [inhibitor, full curve, poor fit].
For `CCCc1sc(N)nc1-c1ccc(Cl)cc1`, the Potency was inconclusive: 35.5 µM [inhibitor, single point].
With `COCCCNc1nc(NCc2ccc(C)cc2)c2cnn(C)c2n1` the Potency was “inactive”.
With `Cc1cccc(NS(=O)(=O)c2cc(C(=O)OC(C)C(=O)NCc3ccc4c(c3)OCO4)ccc2C)c1` (stereo not given) the Potency was inconclusive: 15.8 µM [inhibitor, single point].
In the case of `COc1cccc2c1cc1c(=O)n(CC(=O)N3CCC(C)CC3)nc(C)n12`, the Potency is reported as “inactive”.
With `Cc1cccc(C(=O)NNc2ncnc3c2cnn3C)c1` the Potency was inconclusive: 5.62 µM [inhibitor, single point].
In the case of `O=C(N/N=C/c1ccc([N+](=O)[O-])o1)C(O)c1ccccc1` (stereo not given), the Potency is reported as inconclusive: 17.8 µM [inhibitor, single point].
For `Cc1cccc(N2CCN(C(=O)c3cc4ccc5cccnc5c4[nH]3)CC2C)c1` (stereo not given), the Potency was inconclusive: 7.94 µM [inhibitor, partial curve, poor fit].
In the case of `CCN(C(=O)Cn1ncc2c(=O)oc3ccccc3c21)c1ccccc1F`, the Potency is reported as “inactive”.
For `CCC(C)NC(=O)c1sc2nc3n(c(=O)c2c1C)CCC3` (stereo not given), the Potency was inconclusive: 0.1 µM [inhibitor, full curve, poor fit].
For `NNc1nc2sc3c(c2c(=O)n1-c1ccccc1)CCCC3`, the Potency was “inactive”.
For `O=S(=O)(c1ccc2c(c1)nc(COc1ccc(Cl)cc1)n2CC1CCCO1)N1CCOCC1` (stereo not given), the Potency was inconclusive: 3.98 µM [inhibitor, full curve, poor fit].
For `CCOc1ccc(S(=O)(=O)N(CC)CC(=O)NCc2ccncc2)cc1`, the Potency was “inactive”.
With `COc1ccc(N(CC(=O)NCCSc2ccccc2)S(C)(=O)=O)cc1` the Potency was “inactive”.
For `O=C(O)c1ccc(N=N/C(=N\Nc2ccc(C(=O)O)cc2)c2ccccc2)cc1`, the Potency was “inactive”.
With `Cc1ccc(-c2nc(N/N=C/c3cccnc3)c3ccccc3n2)cc1` the Potency was inconclusive: 15.8 µM [inhibitor, partial curve, poor fit].
In the case of `COc1cc2c(NC3CCN(C)CC3)nc(N3CCCN(C)CC3)nc2cc1OCCCCN(C)C`, the Potency is reported as inconclusive: 3.98 µM [inhibitor, partial curve, poor fit].
For `CCCCNC(=O)CN1CCN(c2ncc(NC(=O)c3ccc(Cl)cc3)cc2C(=O)O)CC1`, the Potency was “inactive”.
With `O=C(NC(c1ccccc1)c1ccccc1)C1CCCN(S(=O)(=O)c2cnc[nH]2)C1` (stereo not given) the Potency was inconclusive: 3.16 µM [inhibitor, partial curve].
